Consider 44 compounds from publication PMC4336329 (PLoS ONE, 2015).

Hit rate of the full screen: of about 310,000 compounds, about 2,200 (0.71%) showed an effect of 50% or more. The effect is printed as a negative number. Some of the results follow.

human ether-à-go-go-related gene (hERG) potassium channel, sequence (Q12809 whole entry, looked up): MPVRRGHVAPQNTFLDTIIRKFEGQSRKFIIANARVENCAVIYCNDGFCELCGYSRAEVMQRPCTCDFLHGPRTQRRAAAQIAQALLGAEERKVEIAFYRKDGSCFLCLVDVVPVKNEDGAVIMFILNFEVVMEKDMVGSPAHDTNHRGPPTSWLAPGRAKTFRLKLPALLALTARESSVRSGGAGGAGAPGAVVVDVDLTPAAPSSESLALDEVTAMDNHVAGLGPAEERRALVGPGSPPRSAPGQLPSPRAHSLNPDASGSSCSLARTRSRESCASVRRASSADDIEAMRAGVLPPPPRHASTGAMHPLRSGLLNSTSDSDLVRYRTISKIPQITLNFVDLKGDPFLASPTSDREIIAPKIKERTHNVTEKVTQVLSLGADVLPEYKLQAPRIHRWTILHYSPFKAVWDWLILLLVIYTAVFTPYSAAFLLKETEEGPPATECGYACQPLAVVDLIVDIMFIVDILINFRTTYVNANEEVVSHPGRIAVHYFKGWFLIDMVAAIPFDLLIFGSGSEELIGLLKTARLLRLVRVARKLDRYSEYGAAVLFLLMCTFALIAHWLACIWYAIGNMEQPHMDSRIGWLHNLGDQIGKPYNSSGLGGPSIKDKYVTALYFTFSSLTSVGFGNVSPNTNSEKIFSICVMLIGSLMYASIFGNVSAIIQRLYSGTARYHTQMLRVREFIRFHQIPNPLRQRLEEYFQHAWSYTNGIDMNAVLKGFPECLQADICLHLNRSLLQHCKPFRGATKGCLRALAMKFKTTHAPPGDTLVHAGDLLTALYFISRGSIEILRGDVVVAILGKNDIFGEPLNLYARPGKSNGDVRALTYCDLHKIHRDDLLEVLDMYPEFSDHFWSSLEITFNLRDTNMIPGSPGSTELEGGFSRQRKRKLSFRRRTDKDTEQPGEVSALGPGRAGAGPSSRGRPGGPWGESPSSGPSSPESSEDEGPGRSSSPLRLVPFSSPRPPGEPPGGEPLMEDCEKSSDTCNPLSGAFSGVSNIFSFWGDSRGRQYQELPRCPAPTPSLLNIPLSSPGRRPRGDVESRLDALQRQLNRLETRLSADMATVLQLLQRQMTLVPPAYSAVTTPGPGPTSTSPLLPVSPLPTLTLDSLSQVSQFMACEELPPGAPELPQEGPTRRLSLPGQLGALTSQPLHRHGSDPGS

This assay addresses human ether-à-go-go-related gene (hERG) potassium channel (human, UniProt Q12809). The assay is described as follows: primary screen, population patch clamp on CHO cells stably expressing hERG.
As to `CC(=O)c1ccc(NC(=O)Nc2ccc3c(c2)N(C)C(=O)CS3)cc1`, the “hERG current change (%, negative = inhibition) at 1uM” value is 12.4%. `C/C(=N\NC(=O)CSc1nc(C)cc(C)n1)c1cccs1`: the “hERG current change (%, negative = inhibition) at 1uM” value is 9.08%. `CCN1CCN(C(C)C(=O)NC2CCCCC2)CC1.O=C(O)C(=O)O` (centres unmarked): the “hERG current change (%, negative = inhibition) at 1uM” value amounted to 8.27%.

For the compound `O=C(CCN1C(=O)c2ccccc2C1=O)N1CCN(C(=O)c2ccccc2)CC1`, the “hERG current change (%, negative = inhibition) at 1uM” value turned out to be 7.73%. Turning to `COc1ccc2c(c1)C1NC(=S)NC(C)(O2)C1C(=O)Nc1ccc(C)cc1C` (centres unmarked), the “hERG current change (%, negative = inhibition) at 1uM” value was 3.98%. To `O=[N+]([O-])/C(C(Cl)=C(Cl)Cl)=C(\Sc1ccccc1)N1CCCCC1` belongs -3.16%; to `CN(C)/C=N/c1[nH]ncc1C#N`, 9.35%. As to `CC[C@@H]1C(=O)OC[C@@H]1CC1=CN=C[NH+]1C.O=[N+]([O-])[O-]`, the “hERG current change (%, negative = inhibition) at 1uM” value was 19.5%. With `COc1ccc(OCC(=O)Nc2ccc(N3CCN(C(=O)c4ccccc4C)CC3)cc2)cc1`, the “hERG current change (%, negative = inhibition) at 1uM” value is reported as 6.68%. Turning to `CCCCCCC(=O)N(O)C1CC(=O)N(c2ccc(F)cc2)C1=O` (centres unmarked), the “hERG current change (%, negative = inhibition) at 1uM” value is recorded as 16.4%. In the case of `CN(C)CCN(C(=O)C1=COCCO1)c1nc2ccc(F)cc2s1.Cl`, the “hERG current change (%, negative = inhibition) at 1uM” value is given as -57.7%.

As for `COc1cccc(CN(C)C(=O)CSC(C)C(=O)Nc2cc(C)on2)c1OC` (centres unmarked), the “hERG current change (%, negative = inhibition) at 1uM” value came to 14%. To `CN1CCN(c2ccccc2NC(=O)c2ccc(OCc3ccccc3)cc2)CC1` belongs 5.14%. To `CC(C)NC(=O)C1CCN(C2CCN(C(=O)C3=CCCC3)CC2)CC1` belongs 1.67%; to `Cc1cccn2cc(-c3ccc(F)cc3)cc12`, 14.2%; to `COc1ccc(C(=O)NCC(=O)Nc2ccc(-c3ccccc3)cc2)cc1`, 15.7%. To `CCN(CC(=O)Nc1c(F)cccc1F)C(=O)CN(C)S(=O)(=O)c1ccc(F)cc1` belongs 6.9%; to `COc1ccc(-n2nnnc2SCC(=O)NC(=O)Nc2ccc3c(c2)OCCO3)cc1`, 6.13%; to `CN(C)c1cc(N)c2c(n1)CCC2.O=C(O)c1cncc(O)c1`, -2.61%. `COc1cccc(C(=O)Nc2nnc(SCC(=O)Nc3ccc(NC(C)=O)cc3)s2)c1`: the “hERG current change (%, negative = inhibition) at 1uM” value was -25.3%. With `O=C(N/N=C/C1CC=CCC1)c1ccccc1O` (centres unmarked), the “hERG current change (%, negative = inhibition) at 1uM” value worked out at 13.3%. Regarding `CCC(Oc1ccccc1)C(=O)Nc1ccsc1C(=O)OC` (centres unmarked), the “hERG current change (%, negative = inhibition) at 1uM” value came out at 8.03%. Turning to `Cc1ccc(C(=O)OCC(=O)Nc2cc(C(C)(C)C)nn2-c2ccccc2)c(O)c1`, the “hERG current change (%, negative = inhibition) at 1uM” value is reported as -2.37%. For `CN(Cc1c(C(=O)N/N=C/c2cccc(O)c2)nnn1-c1nonc1N)C1CCCCC1` the value was 3.72%; for `Cc1nnc2n1NC(c1ccc(Cl)cc1)C(C(=O)N1CCC(C)CC1)S2` (centres unmarked), 12.1%. For `Cc1occc1-c1nnc(SCC(=O)NC2CC2)n1C`, the “hERG current change (%, negative = inhibition) at 1uM” value is -1.36%.

In the case of `CC(C)CCN(C(=O)CNC(=O)c1cccs1)C(C(=O)NC1CCCCC1)c1cccnc1` (centres unmarked), the “hERG current change (%, negative = inhibition) at 1uM” value is given as -1.18%. Regarding `COC(=O)C(NC(=O)c1ccccc1)=C1CCCCC1`, the “hERG current change (%, negative = inhibition) at 1uM” value is on record as 14.6%. For `COCc1ccc(CN2CCCC(C(=O)Nc3ccccc3-c3ccc(OC)cc3)C2)o1` (centres unmarked), the “hERG current change (%, negative = inhibition) at 1uM” value is recorded as -3.55%. To `C=CCn1c(O)c(N=NC(=O)CNC(=O)c2ccco2)c2ccccc21` belongs 4.43%. For `O=C(O)CC12CC3CC(C1)CC(n1ncc(NCC4CCCO4)c(Cl)c1=O)(C3)C2` (centres unmarked) the value was 7.31%; for `O=C1CCC(C(=O)OCc2ccccc2)N1` (centres unmarked), 15.3%.

On to `COc1ccc(NC(=O)CNC(=O)Cn2cnc3sc(C)c(C)c3c2=O)cc1OC`, for which the “hERG current change (%, negative = inhibition) at 1uM” value worked out at 8.41%. For `CCOC(=O)c1ccc(N2C(=O)C(O)=C(C(C)=O)C2c2ccccc2)cc1` (centres unmarked) the value was 13%; for `CCCCC(CCCCl)C(=O)Nc1ccccc1` (centres unmarked), 8.59%; for `O=C(CN1CCN(c2ccccc2O)CC1)NNC(=O)c1ccc(Cl)cc1`, 6.3%. To `O=C1COc2ccc(C(=O)COC(=O)CCc3ccc(S(=O)(=O)N4CCOCC4)cc3)cc2N1` belongs 3.18%; to `CCCCC(=O)Nc1nnc(/C=C/c2ccc(OC)cc2)s1`, 12.4%; to `Cc1ccc(S(=O)(=O)N(C)c2ccc(C(=O)N(CC(C)C)C3CCS(=O)(=O)C3)cc2)cc1` (centres unmarked), 0.973%. To `COc1ccc([N+](=O)[O-])cc1N(CC(O)CN(C)C)S(=O)(=O)c1ccccc1` (centres unmarked) belongs 8.5%; to `O=C(N/N=C/c1ccccn1)c1cc(C2CC2)[nH]n1`, 12.7%; to `CC(C)c1ccc(CCNC(=O)CSC(=S)N2CCCC2)cc1`, 20.7%. On to `COCCNc1ccc(N2C(=O)C3CCCCC3C2=O)cc1[N+](=O)[O-]` (centres unmarked), for which the “hERG current change (%, negative = inhibition) at 1uM” value is given as 3.48%. To `CC1CCCCC12NC(=O)N(CC(=O)N1CCN(c3ncccn3)CC1)C2=O` (centres unmarked) belongs -0.565%.
